Scores whose standard error is large were omitted. Not listed are two conditions whose scores span a narrow range. Read del as a deletion of the residues named and ins as an insertion between two positions. For some assays here: The concentration of ogerin is not given here.
B1: GPR68, Q15743 (parent)
chain: MGNITADNSSMSCTIDHTIHQTLAPVVYVTVLVVGFPANCLSLYFGYLQIKARNELGVYLCNLTVADLFYICSLPFWLQYVLQHDNWSHGDLSCQVCGILLYENIYISVGFLCCISVDRYLAVAHPFRFHQFRTLKAAVGVSVVIWAKELLTSIYFLMHEEVIEDENQHRVCFEHYPIQAWQRAINYYRFLVGFLFPICLLLASYQGILRAVRRSHGTQKSRKDQIQRLVLSTVVIFLACFLPYHVLLLVRSVWEASCDFAKGVFNAYHFSLLLTSFNCVADPVLYCFVSETTHRDLARLRGACLAFLTCSRTGRAREAYPLGAPEASGKSGAQGEEPELLTKLHPAFQTPNSPGSGGFPTGRLA

How the values were obtained:
[1] = variants of: B1; experiment: cAMP reporter score (Enrich2 score, wild type = 0); higher = more signal; HEK293T, FACS bins; conditions: pH 6.5; modulator: ogerin
[2] = variants of: B1; experiment: surface expression score (Enrich2 score, wild type = 0); higher = more signal; HEK293T, FACS bins

Variant | cAMP reporter score [1] | surface expression score [2]
L56Y | -2.54 | -1.77
C72M | 1.39 | 0.337
C72P | -1.26 | -2.54
C72_S73del | -0.425 | -3.21
P75A | 0.25 | -1.21
V81R | 2.95 | -0.423
Q95_V96insG | -1.19 | 0.59
I105P | -0.918 | 
Y106_I107insGSG | -0.332 | 
F111T | -1.12 | -3.57
L112I | -0.377 | 
S116del | 0.287 | -0.228
H125del | -0.172 | -2.8
R128_F129insG | -0.331 | 
E164M | -2.53 | -0.431
Q168P | -1.19 | 
Y187_R189del | -1.64 | 

Variant | cAMP reporter score [1] | surface expression score [2]
L200W | -0.437 | -0.412
A211W | -2.38 | 1.29
V212del | -1.56 | -0.075
R213_S215del | -1.46 | -0.433
V234_V235insG | -1.11 | 
L238N | -0.333 | 
L238_A239insG | -0.439 | 
L249D | -0.423 | -4.02
H294V | 0.002 | 0.212
L322T | 0.206 | 
N8E |  | -0.263
P75M |  | -0.319
P126G |  | -0.29
A138L |  | -1.94
L274T |  | -3.3
K330W |  | -0.318

— the GPR68 mutational scans of Howard et al. (2025)
